# Data: the supplement of paper PMC8728848
# The other results are listed elsewhere or left out.
# Key:
# Test in all cases: glycan array binding signal (z-score within array); higher = stronger binding
# Conditions in all cases: glycan notation: IUPAC condensed, linker removed
# [1] = molecular target: Gal(b1-2)Gal
# How it was run: (§1)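 Arrays were curated from the Consortium for Functional Glycomics database, 3228 in total, and kept only where the protein sequence was available. Binding is expressed as a within-array Z-score. This score was averaged across arrays of the same protein sequence at different concentrations or buffers and across linkers, and negative values can be read as non-binding.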
# [2] = molecular target: Gal(b1-3)Gal
# How it was run: as §1
# [3] = molecular target: Gal(b1-3)Gal(b1-4)GlcNAc
# How it was run: as §1
# [4] = molecular target: Gal(b1-3)GalNAc
# How it was run: as §1
# [5] = molecular target: Gal(b1-3)GalNAc(a1-3)[Fuc(a1-2)]Gal(b1-4)Glc
# How it was run: as §1
# [6] = molecular target: Gal(b1-3)GalNAc(a1-3)[Fuc(a1-2)]Gal(b1-4)GlcNAc
# How it was run: as §1
# [7] = molecular target: Gal(b1-3)GalNAc(b1-3)Gal
# How it was run: as §1
# [8] = molecular target: Gal(b1-3)GalNAc(b1-3)Gal(a1-4)Gal(b1-4)Glc
# How it was run: as §1
# [9] = molecular target: Gal(b1-3)GalNAc(b1-4)Gal(b1-4)Glc
# How it was run: as §1
# [10] = molecular target: Gal(b1-3)GalNAc(b1-4)[Neu5Ac(a2-3)]Gal(b1-4)Glc
# How it was run: as §1
# [11] = molecular target: Gal(b1-3)GlcNAc
# How it was run: as §1
# [12] = molecular target: Gal(b1-3)GlcNAc(a1-3)Gal(b1-4)GlcNAc
# How it was run: as §1
# [13] = molecular target: Gal(b1-3)GlcNAc(a1-6)Gal(b1-4)GlcNAc
# How it was run: as §1
# [14] = molecular target: Gal(b1-3)GlcNAc(b1-2)Man
# How it was run: as §1
# [15] = molecular target: Gal(b1-3)GlcNAc(b1-2)Man(a1-3)[Gal(b1-3)GlcNAc(b1-2)Man(a1-6)]Man(b1-4)GlcNAc(b1-4)GlcNAc
# How it was run: as §1
# [16] = molecular target: Gal(b1-3)GlcNAc(b1-2)Man(a1-3)[Gal(b1-3)GlcNAc(b1-2)Man(a1-6)]Man(b1-4)GlcNAc(b1-4)[Fuc(a1-6)]GlcNAc
# How it was run: as §1
# [17] = molecular target: Gal(b1-3)GlcNAc(b1-2)Man(a1-3)[GlcNAc(b1-4)][Gal(b1-3)GlcNAc(b1-2)Man(a1-6)]Man(b1-4)GlcNAc(b1-4)GlcNAc
# How it was run: as §1
# [18] = molecular target: Gal(b1-3)GlcNAc(b1-2)[Gal(b1-3)GlcNAc(b1-6)]Man(a1-6)[Gal(b1-3)GlcNAc(b1-2)Man(a1-3)]Man(b1-4)GlcNAc(b1-4)GlcNAc
# How it was run: as §1
# [19] = molecular target: Gal(b1-3)GlcNAc(b1-3)Gal(b1-3)GlcNAc
# How it was run: as §1
# [20] = molecular target: Gal(b1-3)GlcNAc(b1-3)Gal(b1-4)Glc
# How it was run: as §1
# [21] = molecular target: Gal(b1-3)GlcNAc(b1-3)Gal(b1-4)GlcNAc
# How it was run: as §1
# [22] = molecular target: Gal(b1-3)GlcNAc(b1-3)Gal(b1-4)GlcNAc(b1-2)Man(a1-3)[Gal(b1-3)GlcNAc(b1-3)Gal(b1-4)GlcNAc(b1-2)Man(a1-6)]Man(b1-4)GlcNAc(b1-4)GlcNAc
# How it was run: as §1
# [23] = molecular target: Gal(b1-3)GlcNAc(b1-3)Gal(b1-4)GlcNAc(b1-2)[Gal(b1-3)GlcNAc(b1-3)Gal(b1-4)GlcNAc(b1-6)]Man(a1-6)[Gal(b1-3)GlcNAc(b1-3)Gal(b1-4)GlcNAc(b1-2)Man(a1-3)]Man(b1-4)GlcNAc(b1-4)[Fuc(a1-6)]GlcNAc
# How it was run: as §1
# [24] = molecular target: Gal(b1-3)GlcNAc(b1-3)Gal(b1-4)GlcNAc(b1-3)Gal(b1-4)GlcNAc(b1-2)[Gal(b1-3)GlcNAc(b1-3)Gal(b1-4)GlcNAc(b1-3)Gal(b1-4)GlcNAc(b1-6)]Man(a1-6)[Gal(b1-3)GlcNAc(b1-3)Gal(b1-4)GlcNAc(b1-3)Gal(b1-4)GlcNAc(b1-2)Man(a1-3)]Man(b1-4)GlcNAc(b1-4)[Fuc(a1-6)]GlcNAc
# How it was run: as §1
# [25] = molecular target: Gal(b1-3)GlcNAc(b1-3)Gal(b1-4)GlcNAc(b1-6)[Gal(b1-3)GlcNAc(b1-3)]Gal(b1-4)Glc
# How it was run: as §1
# [26] = molecular target: Gal(b1-3)GlcNAc(b1-3)Gal(b1-4)[Fuc(a1-3)]GlcNAc
# How it was run: as §1
# [27] = molecular target: Gal(b1-3)GlcNAc(b1-3)Gal(b1-4)[Fuc(a1-3)]GlcNAc(b1-6)[Gal(b1-3)GlcNAc(b1-3)]Gal(b1-4)Glc
# How it was run: as §1
# [28] = molecular target: Gal(b1-3)GlcNAc(b1-3)GalNAc
# How it was run: as §1
# [29] = molecular target: Gal(b1-3)GlcNAc(b1-6)Gal(b1-4)GlcNAc
# How it was run: as §1
# [30] = molecular target: Gal(b1-3)GlcNAc(b1-6)GalNAc
# How it was run: as §1
# [31] = molecular target: Gal(b1-3)GlcNAc(b1-6)[Gal(b1-3)]GalNAc
# How it was run: as §1
# [32] = molecular target: Gal(b1-3)GlcNAc6S
# How it was run: as §1
# [33] = molecular target: Gal(b1-3)[Fuc(a1-4)]GlcNAc
# How it was run: as §1
# [34] = molecular target: Gal(b1-3)[Fuc(a1-4)]GlcNAc(b1-2)Man
# How it was run: as §1
# [35] = molecular target: Gal(b1-3)[Fuc(a1-4)]GlcNAc(b1-2)Man(a1-3)[Gal(b1-3)[Fuc(a1-4)]GlcNAc(b1-2)Man(a1-6)]Man(b1-4)GlcNAc(b1-4)[Fuc(a1-6)]GlcNAc
# How it was run: as §1
# [36] = molecular target: Gal(b1-3)[Fuc(a1-4)]GlcNAc(b1-3)Gal(b1-3)[Fuc(a1-4)]GlcNAc
# How it was run: as §1
# [37] = molecular target: Gal(b1-3)[Fuc(a1-4)]GlcNAc(b1-3)Gal(b1-4)[Fuc(a1-3)]GlcNAc
# How it was run: as §1
# [38] = molecular target: Gal(b1-3)[Fuc(a1-4)]GlcNAc(b1-6)GalNAc
# How it was run: as §1
# [39] = molecular target: Gal(b1-3)[GlcNAc(b1-6)]GalNAc
# How it was run: as §1
# [40] = molecular target: Gal(b1-3)[Neu5Ac(a2-6)]GalNAc
# How it was run: as §1
# [41] = molecular target: Gal(b1-3)[Neu5Ac(a2-6)]GlcNAc(b1-4)Gal(b1-4)Glc
# How it was run: as §1
# [42] = molecular target: Gal(b1-3)[Neu5Ac(b2-6)]GalNAc
# How it was run: as §1
# [43] = molecular target: Gal(b1-4)Gal
# How it was run: as §1
# [44] = molecular target: Gal(b1-4)GalNAc(a1-3)[Fuc(a1-2)]Gal(b1-4)GlcNAc
# How it was run: as §1
# [45] = molecular target: Gal(b1-4)GalNAc(b1-3)[Fuc(a1-2)]Gal(b1-4)GlcNAc
# How it was run: as §1
binder,measurement,setting,value
rEtpA (Escherichia coli) (protein) MNRIYKLKFDKRRNELVVVSEITTGVGNAKATGSVEGEKSPRRGVRAMALSLLSGMMIMAHPAMSANLPTGGQIVAGSGSIQTPSGNQMNIHQNSQNMVANWNSFDIGKGNTVQFDQPSSSAVALNRVVGGGESQIMGNLKANGQVFLVNPNGVLFGEGASVSTSGFVASTRDIKNDDFMNRRYTFSGGQKAGAAIVNQGELTTNAGGYIVLAADRVSNSGTIRTPGGKTVLAASERITLQLDNGGLMSVQVTGDVVNALVENRGLVSARDGQVYLTALGRGMLMNTVLNVSGVVEASGMHRQDGNIVLDGGDSGVVHLSGTLQADNASGQGGKVVVQGKNILLDKGSNITATGGQGGGEVYVGGGWQGKDSNIRNADKVVMQGGARIDVSATQQGNGGTAVLWSDSYTNFHGQISAKGGETGGNGGRVETSSHGNLQAFGTVSASAKKGKAGNWLLDSADITIVNGSNVSKTETTQSPPHTQFAPTAAGSAVSNTSINNRLNNGTSVTILTHRTRTGTAQGGNITVNAAINKSNGSDVNLTLQAGGNITVNNSITSTEGKLNVNLSGARTSNGSITISNNANITTNGGDITVGTTNTSNRVNISINNTTLNASNGNIQLTGTGTDSGILFAGNNRLTASNIALTGNSTSGNAINLTGTATLNATNNITLTGSSTSGNAINLKGNNTLTASNITLTGESTSGNAINLTDTTGTTTLNATNNITMQGTRVQIKHSNITAGNFALNATVAGSEISNTTLTATNNINLAAKTNSASSGVYLKDARITSTNGSITANGTATANGKATHLDGNVTLNASNGRIKLTGNGHGSASGILFAGNNRLTASNIALTGNSTSGNAINLTGTATLNATNDITLTGSSTSGNAINLTGTATLNATNNITLTGSSTSGNAINLKGNNTLTASNITLTGESTSGNAINLTDTTGTTTLNATNNITMQGTRVQIKHSNITAGNFALNATVAGSEISNTTLTATNNINLAAKTNSASSGVYLKDARITSTNGSITANGTATANGKATHLDGNVTLNASNGRIKLTGNGHGSASGILFAGNNRLTASNIALTGNSTSGNAINLTGTATLNATNDITLTGSSTSGNAINLTGTATLNATNNITLTGSSTSGNAINLKGNNTLTASNITLTGESTSGNAINLTDTTGTTTLNATNNITMQGTRVQIKHSNITAGNFALNATVAGSEISNTTLTATNNINLAAKTNSASSGVYLKDARITSTNGSITANGTATANGKATHLDGNVTLNASNGRIKLTGNGHGSASGILFAGNNRLTASNIALTGNSTSGNAINLTGTATLNATNDITLTGSSTSGNAINLTGTATLNATNNITLTGSSTSGNAINLKGNNTLTASNITLTGESTSGNAINLTDTTGTTTLNATNNITMQGTRVQIKHSNITAGNFALNATVAGSEISNTTLTATNNINLAAKTNSASSGVYLKDARITSTNGSITTNGTATANGKATHLDGNVTLNASNGRIKLTGNGHGSASGILFAGNNRLTASNIALTGNSTSGNAINLTGTATLNATNDITLTGSSTSGNAINLTGTATLNATNNITLTGSSTSGNAINLKGNNTLTASNITLTGESTSGNAINLTDTTGTTTLNATNNITMQGTRVQIKHSNITAGNFALNATVAGSEISNTTLTATNNINLAAKTNSASSGVYLKDARITSTNGSITANGTAPANDNATYLDGNVTLNASNGSIKLTGNGNGSTSGILFAGNNTLTASNITLTGNSEVYWQKLGPEQKLISEEDLNSAVDHHHHHH,glycan array binding signal (z-score),[1],-0.384
same,glycan array binding signal (z-score),[2],-0.312
same,glycan array binding signal (z-score),[3],-0.041
same,glycan array binding signal (z-score),[4],-0.107
same,glycan array binding signal (z-score),[5],-0.178
same,glycan array binding signal (z-score),[6],-0.27
same,glycan array binding signal (z-score),[7],-0.269
same,glycan array binding signal (z-score),[8],-0.351
same,glycan array binding signal (z-score),[9],-0.272
same,glycan array binding signal (z-score),[10],-0.336
same,glycan array binding signal (z-score),[11],-0.234
same,glycan array binding signal (z-score),[12],-0.07
same,glycan array binding signal (z-score),[13],0.606
same,glycan array binding signal (z-score),[14],1.81
same,glycan array binding signal (z-score),[15],1.17
same,glycan array binding signal (z-score),[16],0.011
same,glycan array binding signal (z-score),[17],0.227
same,glycan array binding signal (z-score),[18],1.25
same,glycan array binding signal (z-score),[19],-0.221
same,glycan array binding signal (z-score),[20],-0.484
same,glycan array binding signal (z-score),[21],-0.457
same,glycan array binding signal (z-score),[22],-0.343
same,glycan array binding signal (z-score),[23],-0.177
same,glycan array binding signal (z-score),[24],-0.05
same,glycan array binding signal (z-score),[25],-0.347
same,glycan array binding signal (z-score),[26],-0.345
same,glycan array binding signal (z-score),[27],-0.382
same,glycan array binding signal (z-score),[28],-0.197
same,glycan array binding signal (z-score),[29],-0.409
same,glycan array binding signal (z-score),[30],-0.422
same,glycan array binding signal (z-score),[31],-0.375
same,glycan array binding signal (z-score),[32],-0.241
same,glycan array binding signal (z-score),[33],-0.298
same,glycan array binding signal (z-score),[34],0.903
same,glycan array binding signal (z-score),[35],-0.041
same,glycan array binding signal (z-score),[36],-0.447
same,glycan array binding signal (z-score),[37],-0.326
same,glycan array binding signal (z-score),[38],-0.25
same,glycan array binding signal (z-score),[39],-0.347
same,glycan array binding signal (z-score),[40],-0.225
same,glycan array binding signal (z-score),[41],-0.373
same,glycan array binding signal (z-score),[42],-0.274
same,glycan array binding signal (z-score),[43],1.5
same,glycan array binding signal (z-score),[44],-0.332
same,glycan array binding signal (z-score),[45],-0.404
